Data from article PMC6607443, “Systematic identification of recognition motifs for the hub protein LC8” (Life Science Alliance, 2019).
These are yes or no findings as the source states them, for the method shown.

Sequences of proteins named here, by UniProt entry; tags and fusion partners are left off.
UniProt P63167: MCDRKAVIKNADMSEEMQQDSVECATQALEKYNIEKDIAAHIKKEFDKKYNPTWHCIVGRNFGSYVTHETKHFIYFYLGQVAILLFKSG

Target: dynein light chain LC8 (UniProt P63167)
Assay: ITC; peptide (500 μM) injected into 25 μM LC8 in the cell; 25°C; 50 mM sodium phosphate, 50 mM NaCl, 1 mM sodium azide, 5 mM β-mercaptoethanol, pH 7.5; single-site model; averages of two to three experiments; both purified

Binder	binding
RGDGSDVSSQTPQT [ANKIB1 peptide]	no binding (tested: 500 μM peptide injected into 25 μM LC8)
DDPMYSSQTQTYGD [KCNQ2 peptide]	no binding (tested: 500 μM peptide injected into 25 μM LC8)
ESGDGNTGTQTNGL [POU2F1 peptide]	no binding (tested: 500 μM peptide injected into 25 μM LC8)
